# Lines with a small IC50 respond at low doses; a limit (>, <) means that the fit lies beyond the doses tested. AUC is the area under the same curve over the 256-fold range up to the top dose, as a fraction; it is 1 without any effect and falls as sensitivity rises. For part of these data: Any top dose called inferred was calculated from the reported fits. For part of these data: Where an entry number is given, a second screen of the drug exists; the two often differ.
# How the values were obtained:
# Experiment in all cases: Viability of human cancer cell lines after 72 h of drug (GDSC screen)
# OSI-930 = compound: O=C(Nc1ccc(OC(F)(F)F)cc1)c1sccc1NCc1ccnc2ccccc12 [OSI-930]; details: top dose 10.24 µM
# Procedure: (§1)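 Human cancer cell lines in 384-well plates, medium with 10% serum, drug for 72 h over a 256-fold dose range (nine 2-fold or five 4-fold steps up to the top dose). Adherent lines were fixed and stained with the nucleic acid dye Syto60, suspension lines read with resazurin; signal relative to control wells, capped at 0 and 100%. One two-parameter sigmoid per drug and line, fitted in a mixed model over all curves with the slope shared within a line.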
# Masitinib = compound: Cc1ccc(NC(=O)c2ccc(CN3CCN(C)CC3)cc2)cc1Nc1nc(-c2cccnc2)cs1 [Masitinib]; details: top dose 20 µM
# Procedure: as §1
# Tamoxifen = compound: CC/C(=C(\c1ccccc1)c1ccc(OCCN(C)C)cc1)c1ccccc1 [Tamoxifen]; details: top dose 5 µM
# Procedure: as §1
# NSC-87877 = compound: O=S(=O)(O)c1ccc2cc(N=Nc3cc(S(=O)(=O)O)c4cccnc4c3O)ccc2c1 [NSC-87877]; details: top dose 16 µM; top dose inferred
# Procedure: as §1
# BX-912 = compound: O=C(Nc1cccc(Nc2ncc(Br)c(NCCc3cnc[nH]3)n2)c1)N1CCCC1 [BX-912]; details: top dose 10.24 µM; top dose inferred
# Procedure: as §1
# LAQ824 = compound: O=C(/C=C/c1ccc(CN(CCO)CCc2c[nH]c3ccccc23)cc1)NO [LAQ824]; details: top dose 1.024 µM; top dose inferred
# Procedure: as §1
# VNLG/124 = compound: CCCC(=O)OCc1ccc(OC(=O)/C=C(C)/C=C/C=C(C)/C=C/C2=C(C)CCCC2(C)C)cc1 [VNLG/124]; details: top dose 5.12 µM; top dose inferred
# Procedure: as §1
# HG-5-88-01 = compound: COc1cc(N2CCC(C(N)=O)CC2)ccc1Nc1nc(N)c(Cl)c(Nc2ccccc2S(=O)(=O)C(C)C)n1 [HG-5-88-01]; details: top dose 10 µM; top dose inferred
# Procedure: as §1
# Bleomycin = compound: Cc1c(N)nc([C@H](CC(N)=O)NC[C@H](N)C(N)=O)nc1C(=O)N[C@H](C(=O)N[C@H](C)[C@@H](O)[C@H](C)C(=O)N[C@H](C(=O)NCCc1nc(-c2nc(C(=O)NCCC[S+](C)C)cs2)cs1)[C@@H](C)O)[C@@H](OC1OC(CO)C(O)C(O)C1OC1OC(CO)C(O)C(OC(N)=O)C1O)c1cnc[nH]1 [Bleomycin]
# Procedure: as §1
# Elesclomol = compound: CN(NC(=O)CC(=O)NN(C)C(=S)c1ccccc1)C(=S)c1ccccc1 [Elesclomol]; details: top dose 0.2 µM; top dose inferred
# Procedure: as §1
# [1] = top dose 50 µM, screen: GDSC drug entry 1378, top dose inferred
# [2] = top dose 64 µM, screen: GDSC drug entry 190
Cell Line,AUC (OSI-930),IC50 (OSI-930),AUC (Masitinib),IC50 (Masitinib),AUC (Tamoxifen),IC50 (Tamoxifen),AUC (NSC-87877),IC50 (NSC-87877),AUC (BX-912),IC50 (BX-912),AUC (LAQ824),IC50 (LAQ824),AUC (VNLG/124),IC50 (VNLG/124),AUC (HG-5-88-01),IC50 (HG-5-88-01),AUC (Bleomycin; [1]),IC50 (Bleomycin; [1]),AUC (Bleomycin; [2]),IC50 (Bleomycin; [2]),AUC (Elesclomol),IC50 (Elesclomol)
"SH-4 (melanoma, adherent)",0.955,> 10.2 µM,0.854,> 20 µM,0.868,> 5 µM,0.844,> 16 µM,0.903,> 10.2 µM,0.407,0.031 µM,0.974,> 5.12 µM,0.852,> 10 µM,0.597,6.67 µM,0.586,7.84 µM,0.853,> 0.2 µM
"ES6 (Ewing sarcoma, adherent)",0.91,> 10.2 µM,0.884,> 20 µM,0.97,> 5 µM,0.981,> 16 µM,0.818,7.63 µM,0.377,0.027 µM,0.978,> 5.12 µM,0.938,> 10 µM,0.869,> 50 µM,0.209,0.438 µM,0.659,0.0386 µM
"8505C (thyroid, adherent)",0.985,> 10.2 µM,0.91,> 20 µM,0.983,> 5 µM,0.984,> 16 µM,0.816,6.12 µM,0.317,0.019 µM,0.912,> 5.12 µM,0.954,> 10 µM,0.289,0.761 µM,0.377,1.79 µM,0.423,0.00759 µM
"LS-123 (large intestine, adherent)",0.913,> 10.2 µM,0.905,> 20 µM,0.977,> 5 µM,0.982,> 16 µM,0.898,> 10.2 µM,0.462,0.0488 µM,0.977,> 5.12 µM,0.874,> 10 µM,0.894,> 50 µM,0.659,12.9 µM,0.685,0.0492 µM
"LS-180 (large intestine, adherent)",0.975,> 10.2 µM,0.953,> 20 µM,0.983,> 5 µM,0.949,> 16 µM,0.976,> 10.2 µM,0.358,0.0245 µM,0.982,> 5.12 µM,0.973,> 10 µM,0.36,1.21 µM,0.291,0.939 µM,0.971,> 0.2 µM
"HSC-39 (stomach, suspension)",0.978,> 10.2 µM,0.83,10.2 µM,0.958,> 5 µM,0.969,> 16 µM,0.678,1.86 µM,0.693,0.204 µM,0.991,> 5.12 µM,0.943,> 10 µM,0.943,> 50 µM,0.815,29.2 µM,0.904,> 0.2 µM
"MDA-MB-415 (breast, adherent)",0.9,> 10.2 µM,0.983,> 20 µM,0.957,> 5 µM,0.977,> 16 µM,0.982,> 10.2 µM,0.606,0.138 µM,0.976,> 5.12 µM,0.874,> 10 µM,0.96,> 50 µM,0.738,24.7 µM,0.811,0.153 µM
"NTERA-2 cl.D1 (testis, adherent)",0.982,> 10.2 µM,0.884,> 20 µM,0.908,> 5 µM,0.96,> 16 µM,0.838,6.82 µM,0.318,0.02 µM,0.959,> 5.12 µM,0.689,2.1 µM,0.059,< 0.195 µM,0.026,< 0.25 µM,0.562,0.0184 µM
"JEG-3 (urogenital system, adherent)",0.974,> 10.2 µM,0.919,> 20 µM,0.989,> 5 µM,0.95,> 16 µM,0.991,> 10.2 µM,0.368,0.0289 µM,0.972,> 5.12 µM,0.974,> 10 µM,0.273,0.766 µM,0.612,7.85 µM,0.505,0.0129 µM
"8-MG-BA (glioma, adherent)",0.93,> 10.2 µM,0.867,16.2 µM,0.901,> 5 µM,0.975,> 16 µM,0.896,> 10.2 µM,0.488,0.0596 µM,0.964,> 5.12 µM,0.927,> 10 µM,0.308,0.943 µM,0.327,1.37 µM,0.464,0.0101 µM
"NCI-H841 (small cell lung carcinoma, adherent)",0.959,> 10.2 µM,0.796,9.4 µM,0.987,> 5 µM,0.987,> 16 µM,0.965,> 10.2 µM,0.712,0.256 µM,0.982,> 5.12 µM,0.986,> 10 µM,0.553,4.35 µM,0.897,> 64 µM,0.407,0.00695 µM
"LOU-NH91 (lung squamous cell carcinoma, adherent)",0.981,> 10.2 µM,0.941,> 20 µM,0.982,> 5 µM,0.979,> 16 µM,0.92,> 10.2 µM,0.633,0.155 µM,0.983,> 5.12 µM,0.842,7.94 µM,0.144,0.213 µM,0.885,> 64 µM,0.664,0.0373 µM
